The chains are these.
B1: LINE1-full (parent)
chain: UACGUAGGUGGUUUUCCCCUGAUAGUGCUAAGGGGGCCUGGAAGUUUGGACUGGGCAGAGCUCAACACAGCGUGGCAAAGUGGCUGUGGCUAGACUGCCUCUCUGGAUUCCUCGUCACUCAGCAGGGCAUCUCUGAGAGAAAUGCC

The source gives no read counts; variants with many changes may rest on few reads.

Variants of B1 are the subject of this data set. Put plainly: self-cleavage, relative activity (ratio to wild type); higher = more cleavage; in vitro, sequencing; the parent is a self-cleaving ribozyme.
Regarding UGCGUAGGUGGUUUUCCCCUGAUAGUGCUAAGGGGGCCUGGAAGUUUGGACUGGGCAGAGCUCAACACAGCGUGGCAAAGUGGCUGUGGCUAGACUGCCUCUCUGGUCUCCUCGUCACUCAGCAGGGCAUCUCUGAGAGAAAUGCC [A2G A107U U108C], the self-cleavage came out at 0.81.
Consider UGCGUAGGUGGUUUUCCCCUGAUAGUACUAAGGGGGCUUGGAAGUUUGGACUGGGCAGAGCUCAACACAGCGUGGCGAAGGGGCUGUGGCUAGACUGCCUCUCUGGAUUCCUCGUCACUCAGCAGGGCAUCUCUGAGAGAAACGCC [A2G G27A C38U A77G U81G U143C], for which the self-cleavage was 0.86.
To UGCGUAGGUGGUUUUCCCCUGAUAGUGCUAAGGGGGCCUGGAAGUUUGGACUGGGCAGAGCUCAACACAGCGUGGCUAAGUGGCCGUCGCUAGGCUGCCUCUCUGGAUUCCUCGUCACUCAGCAGGGCAUCUCUGAGAGACAUGCC [A2G A77U U85C G88C A94G A141C] belongs 0.
The same measure for UGCGUAGGUUGUUUUCCCCUGAUAGUGCUAAGGGGGCCUGGAAGUUUGGACUGGGCAGAGCUCAACACAGCGUGGCAAAGUGGCUGUGGCUAGACUGCCUCUCUGGAUUCCUCGUCACUCAGCAGGGCAUCUCUGAGAGAAGUGCC [A2G G10U A142G]: 0.55; for UGCGUAGGUGGUUUUCCCCUGAUAGUGCUAAGGGGGCCUGGAAGUUUGGACUGGGCAGAGCUCAACACAGCGUGGCAAAGUGGCUGUGGCUAGACUGCCUCUCUGGGUUCCUCGUCACUCAGCAGGGCAUCUCUGAGAGAGAUGCC [A2G A107G A141G]: 1.67; for UGCGUAUGUGGUUUUCCCCUGAUAGUGCUAAGGGGGCCUGGAAGUUUGGACUGGGCAGAGCUCAACACAGCGUGGCAAAGUGGCUGAGGCUAGACUGCCUCUCUGGAUUCCUCGUCACUCAGCAGGGCAUCUCUGAGAGAAAUGCC [A2G G7U U87A]: 0.02.
On to UGCGUAGGUGGUUUUCCCCUGAUAGUGCUAAGGGGGCCUGGAAGUUUGGACUGGGCAGAGCUCAACGCAGCGGGGCAAAGUGGCUGUGGCUAGACUGCCUCUCUGGAUUCCUCAUCACCCAGCAGGGCAUCUCUGAGAGAAAUGCC [A2G A67G U73G G114A U119C], for which the self-cleavage came out at 0.68.
Regarding UGCGUAGGUGGUUUUCCCCUGAUAGUGCUAAGGGGGCCUGGAAGUUUGGACUGGGCAGAGCUCAACACAGCGUGGCGAUGUGGCUGUGGCUAGACUGCCUCUCUGGAUUCCUCGACACUCAGCAGGGCUUCUCUGAGAGAAAUGCC [A2G A77G A79U U115A A129U], the self-cleavage worked out at 0.
With UGCGUAGGUGGUUUUCCCCUGAUAGUGCUAAGGGGGUCUGGAAGUUUGGACUGGGCAGAGCUCAACACAGCGUGGCAAAGUGGCUGUGGCUAGACCGCCUCUCUGGAUUCCUCGUCACUCAGCAGGGCAUCUCUGAGAGAAAUGCC [A2G C37U U96C], the self-cleavage worked out at 0.
With UGCGUAGGUGGUUUUCCCCUGAUAGUGCUAAAGGGGCCUGGAAGUUUGGACUGGGCAGAGCUCAACCCAGCGUGGCAAAGUGGCUGAGGCUAGACUGCCUCUCUGGAUUCCUCGUCACUCAGCAGGGCAUCUCUGAGAGAAAUGCC [A2G G32A A67C U87A], the self-cleavage amounted to 0.26.
Turning to UGCGUAGGUGGUUUUCCCCUGAUAGUGCUAAGGGGGCCUGGAAGUUUGGACUGGGCAGAGCUCAAUACAGCGUGGCAAAGUGGCUGUGGCCAGACUGCCUCUCUGGAUUCCUCGUCACUCAGCAGGGCAUCUCUGAGAGAAAUGCC [A2G C66U U91C], the self-cleavage worked out at 0.12.
The same measure for UGCGUAGGUGGUUUUCCCCUGAUAGUGCUAAGGGGGCCUGGAAGUUUGGACUGGGCAGAGCUCAACACGGCGUGGCAAAGUGGCUGUGGCUAGACUGCCUCUCUGUAUUCCUCGUCACUCGGCAGGGCAUCUCUGAGAGAAAUGCC [A2G A69G G106U A121G]: 0.47; for UGCGUAGGUAGUUUUCCCCUGAUAGUGCUAAGGGGGCCUGGAAGUUUGGACUGGGCAGAGCUCAACACAGCGCGGCAAAGUGGCUGUGGCUAGACUGCCUCUCUGGAUUCCUCGUCACACAGCAGGGCAUCUCUGAGAGAAAUGCC [A2G G10A U73C U119A]: 1.73.
The same measure for UGCGUAGGUGGUUUUCCCCUGAUAGUGCUAAGGGAGCCUGGAAGUUUGGACUGGGCAGAGCUCAACACAGCGUGGCAAAGUGGCUGUGGCUAGACUGCCUCUCUGGAUUCCUCGUCACUCAGCAGGGCAUCUCUGAGAGAAAUGUC [A2G G35A C145U]: 0.35; for UGCGUAGGUGGUUUUCCCCUGAUAGUGCUAAGGGGGCCUGGAAGUUUGGACUGGGCAGAGCUCAACACAGCGUGGCUAGGUGGCUGUGGCUAGACCGCCUCUCUGGAUUCCUCGCCACUCAGCAGGGCAUCUCUGAGAGAAAUGCC [A2G A77U A79G U96C U115C]: 0.57.
The same measure for UGCGUAGGUGGUUUUCCCCUGAUAGUGCUAAGGAGGCCUGGAAGUUUGGACAGGGCAGAGCUCAACACAGCGUGGCAAAGUGGCUGUGGCUAGACUGCCUCUCUGGAUUCCUCGUCACCCAGCAGGGCAUCUCUGAGAGAAACGCC [A2G G34A U52A U119C U143C]: 0.98.
UGCGUAGGUGGUUUUCCCCUGAUAGUGCUAAGGGGGCCUGGAAGUUUGGACUGGGCAGAGCUCAGCACAGCGUGGUAAAGUGGCUGUGGCUAGACUGCCUCUCUGGAUUCCUCGUCACUCAGCAGGGCAUCUCCGAGAGAAACGCC [A2G A65G C76U U134C U143C]: the self-cleavage worked out at 0.34.
In the case of UGCGUAGGUGGUUUUCCCCUGAUAGUGCUAAGGGGGCCUGGAAGUUUGGACUGGGCAGAGCUCAACACAGCGUGGCGAAGUGGCUGUGGCUAGACUGCCUCUCUGGAUUCCUCGUCACUCAGCAGGGCAUCUCAGAGAGAAAUGCC [A2G A77G U134A], the self-cleavage came out at 1.23.
To UGUGUAGGUGGUUUUCCCCUGAUAGUGCUAAGGGGGCCUGGAAGCUUGGACUGGGCAGAGCUCAACACAGCGUGGCAAAGUGGCUGUGGCUAGACUGCCUCUCUGGAUUCCUCGUCACUCAGCAGGGCAUCUCUGAGAGGAAUGCC [A2G C3U U45C A140G] belongs 1.36; to UGCGUAGGUGGUUUUCCCCUGAUAGUGCUAAGGGGGCCUGGAAGUUUGGACUGGGCAGAGCUCAACACAGCGUGGCAAAGUGGCUGUGGCUAGACUGCCUCUCUGGAUUCCUCGUCACUCAGCAGGGCAUCUCUGAGGGUAAUGCC [A2G A138G A140U], 0.
Take UGCGUAGGUGGUUUUCCCCUGAUAGUGCUAAGGGGGCCUGGAAGUUUGGACUGGGUAGAGCUCAACACAGCGCGGCAAAGUGGCUGUGGCUAGACUGCCUCUCUGGAUUCCUCGCCACUCAGCAGGGCAUCUCUGAGAGAAAUGCC [A2G C56U U73C U115C]: the self-cleavage was found to be 0.82.
As to UGCGUAGGUGGUUUUCCCCUGAUAGUGCUAAGGGGGCCUGGAAGUUUGGACUGGGCAGAGCUCUACACAGCGUGGCAAAGUGGCUGAGGCUAGACUGCCUCUCUGGAUUCCUCGUCACUCAGCAGGGCAUCUCUGAGAGAAAUGCC [A2G A64U U87A], the self-cleavage amounted to 0.25.
Consider UGCGUAGGUGGUUUUCCCCUGAUAGUGCUAAGGGGGACUGGAAGUUUGGACUGGGCAGAGCUCAACACAGCGUGGCAAAGUGGCUGUGGCUAGACUGCCUCUCUGGAUUCCUCGUCACUCAGCAGGGCAUCUCUGAGAGAAGUGCC [A2G C37A A142G], for which the self-cleavage amounted to 1.3.
The same measure for UGCGUAGGUGGUUUUCCCCUGAUAGUGCUAAGGGGGCCUGGAAGUUUGGACUGGGCAGAGCUCAGCACAGCGUGGCAAAGUGGCUGUGGCUAGACUGCCUCUCUGGAUCCCUCGUCACUCAGCAGGGCAUCUCUGAGAGAAAUGCC [A2G A65G U109C]: 0.13; for UGCGUAGGUGGUUUUCCCCUGAUAGUGCUAAGGGGGCCUGGAAGUUUGGACUGGGCAGAGCUCAACACAGCGUGGCAAGGUGGCUGUGGCUAGACUGCCUCUCUGGAUUCCUCGUCACCCAGCAGGGCAUCUCUGAGAGAAAUGCC [A2G A79G U119C]: 0.71.
Consider UGCGUAGGUGGUUUUCCCCUGAUAGUGCUAAGGGGGCCUGGAAGUUUGGACUGGGCAGAGCUCAACACAGCGUGGCAAAGUGGUUGUGGCUAGACUGCCUCUCUGGAUUCCUCGUCACCCAGCAGGGCAUCUCCGAGAGAAAUGCC [A2G C84U U119C U134C], for which the self-cleavage worked out at 0.67.
In the case of UGCGUAGGUGGUUUUCCCCUGAUAGUGCUAAGGGGGCCUGGAAGUUUGGACUGGGCAGAGCUCAUCACCGCGUGGCAAAGUGGCUGUGGCUAGACUGCCUCUCUGGAUUCCUCGUCACUCAGCAGGGCAUCUCUGAGAGAAAUGCC [A2G A65U A69C], the self-cleavage was 0.
As for UGCGUAAGUGGUUUUCCCCUGAUAGUGCUAAGGGGGCCUGGAAGUUUGGACUGGGCAGAGCUCAACACAGCGUGGCAAAGUGGCUGUGGCUAGACUGUCUCUCUGGAUUCCUCGUCACUCAGCAGGGCAUCUCUGAGAGAAAUGCC [A2G G7A C98U], the self-cleavage is 0.36.
As to UGCGUAGGUGGUUUUCCCCUGAUAGUGCUAAGGGGGCCUGGAAGUUUGGACUGGGCAGAGCUCAACACAGCGUGGCGAAGUGGCUGUGGCUAGACUGCCUCUCUGGAUUCCUCGUCACUCAGCAGGGCACCUCUGAGAGAACUGCC [A2G A77G U130C A142C], the self-cleavage came out at 0.92.
To UGCGUAGGUGGUUUUCCCCUGAUAGUGCUAAGGGGGCCUGGAAGUUUGGACUGGGCAGAGCUCUACACAGCGUGGCAAAGUGGCUGUGGCUAGACUGCCUCUCUGGAUUCCUCGUCACUCAGCGGGGCAUCCCUGAGAGAAAUGCC [A2G A64U A124G U132C] belongs 0.47; to UGCGUAGGUGGUUUUCCCCUGAUAGUGCUAAGGGGGCCUGGAAGUUUGGACUGGGCAGAGCUCAACACAGCGUGGCAAAGUGGCUGUGGCUAGACUGCCUCUCUGGAUUCCUCGUCACUCAGCAGGGCAUCUCUGAGAGGAGUGCC [A2G A140G A142G], 0.57; to UGCGUAGGUGGUUUUCCCCUGAUAGUGCUAAGGGGGCCUGGAAGUUUGGACUGGGCAGAGCUCAACACGGCGUGGCAAAGUGGCUGUGGCUAGACUGCCUCUCUGGAUACCUCGUCACUCAGCAGGGCAUCUCUGAGAGAAAUGCC [A2G A69G U109A], 0.
With UGCGUAGGUGGUUUUCCCCUGAUAGUGCUAAGGGGGCCUGGAAGUUUGGACUGGGCAGAGUUCAACUCAGCGUGGCAAAGUGGCUGUGGCUAGACUGCCUCUCUGGAUUCCUCGUCACUCAGCAGGGCAUCUCUGAGAGAAAUGCC [A2G C61U A67U], the self-cleavage came to 0.07.
The same measure for UGCGUAGGUGGUUUUCCCCUGAUAGUGCUAAGGGGGCCUGGAAGUUUGGACUGGGCAGAGCUCAACACGGCGUGGCAAAGUGGCUGUGGCUAGACUGCUUCUCUGGAUUCCUCGUCACUCAGCAGGGCAUCUCUGAGAGAAAUGCC [A2G A69G C99U]: 0.
Regarding UGCGUAGGUGGUUUUCCCCUGAUAGUGCUAAGGGGGCCUGGAAGUUUGGACUGGGCAGAGCUCAACACAGCGUGGCUAAGUGGCUGUGGCUAGACUGCCUCUCUGGAUUCCUCGUCACUCAGCAGGGCAUCUCUGAGGGAAAUGCC [A2G A77U A138G], the self-cleavage worked out at 0.78.
With UGCGUAGGUGGUUUUCCCCUGAUAGUGCUAAGGGGGCCUGGAAGUUUGGACUGGGCAGAGCUCAACACAGUGUGGCAAAGUGGCUGUGGCUAGACUGCCUCUCUGGAUUCCUCGUCACUCAGCAGGGCAACUCUGAGAGAAAUGCC [A2G C71U U130A], the self-cleavage was 0.64.
The same measure for UGCGUAGGUGGUUUUCCCCUGAUAGUGCUAAGGGGGCCUGGAAGUUUGGACUGGGCAGAGCUCAUCACAGCGUGGCAAAGUGGCUGUGGCUAGACUGCCUCUCUGGAUUCCUCGUCACUCAGCGGGGCAUCUCUGAGAGAAAUGCC [A2G A65U A124G]: 0.11; for UGCGUAGGUGGUUUUCCCCUGAUAGUGCUAAGGGGGCCUGGAAGUUUGGACUGGGCAGAGCUCAACGCAGCGUGGCAAGGUGGCUGUGGCUAGACUGCCUCUCUGGAUUCCUCGUCACUCAGCAGGGCAUCUCUGAGAGAAAUGCC [A2G A67G A79G]: 0.
UGCGUAGGUGGUUUUCCCCUGAUAGUGCUAAGGGGGCCUGGAAGUUUGGACUGGGCAGAGCUCAACACAGCGUGGCAAAGUGGCUGUGGCUAGACUGCCUCUCUGGAUUCCUCGUCACUCAGCAGGGCGUCCCUGAGAGAAAUGCC [A2G A129G U132C]: the self-cleavage worked out at 1.47.

The record behind these values is the RNAGym collection of RNA variant scans (doi:10.7554/elife.90254).
